Laboratory results as given in the supplement of paper PMC9446081.
The whole screen tested about 39,000 compounds, of which about 220 (0.56%) showed activity. This is one part of the list.

System: Escherichia coli K-12 BW25113
Assay: relative growth (OD600 normalised to plate interquartile mean) (fraction); higher = less growth inhibition, active = 0.2 or less
Details: 50 µM; LB; incubation time: overnight (16-24 h)
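Further: static incubation at 37 °C against the wild-type strain, values averaged over two biological replicates.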

SMILES	relative growth
C/C=C1\[C@@H](O[C@H]2O[C@@H](CO)[C@@H](O)[C@@H](O)[C@@H]2O)OC=C(C(=O)OC)[C@H]1CC(=O)OC[C@H]1[C@H](C)[C@H](OC(=O)C[C@@H]2C(C(=O)OC)=CO[C@H](O[C@H]3O[C@@H](CO)[C@@H](O)[C@@H](O)[C@@H]3O)/C2=C\C)C[C@@H]1[C@H](CO)COC(=O)C[C@@H]1C(C(=O)OC)=CO[C@@H](O[C@H]2O[C@@H](CO)[C@@H](O)[C@@H](O)[C@@H]2O)/C1=C\C	inactive: 0.9
C[C@@H]1CCCCO[C@H](CN(C)C(=O)c2ccccc2)[C@H](C)CN([C@@H](C)CO)C(=O)c2cc(NS(=O)(=O)c3ccc(F)cc3)ccc2O1	inactive: 1.01
CSc1ccccc1CN	inactive: 0.987
C[C@@H]1CCCCO[C@H](CN(C)S(=O)(=O)c2ccc(Cl)cc2)[C@H](C)CN([C@H](C)CO)C(=O)c2cc(NS(=O)(=O)c3ccccc3)ccc2O1	inactive: 1.02
Cc1noc(C)c1NC(=O)Nc1ccc2c(c1)C(=O)N([C@H](C)CO)C[C@@H](C)[C@@H](CN(C)Cc1ccc(C(F)(F)F)cc1)OCCCC[C@H](C)O2	inactive: 1.02
C[C@H](CO)N1C[C@H](C)[C@@H](CN(C)C(=O)Nc2ccccc2)OCc2ccccc2-c2c(n(C)c3ccccc23)C1=O	inactive: 0.994
CNC[C@@H]1OCCCC[C@@H](C)Oc2ccc(NC(=O)Nc3cccc4ccccc34)cc2C(=O)N([C@H](C)CO)C[C@@H]1C	inactive: 1.01
C[C@@H]1CN([C@H](C)CO)C(=O)c2cc(NC(=O)Nc3ccc(C(F)(F)F)cc3)ccc2O[C@@H]1CN(C)C(=O)Nc1ccccc1	inactive: 1.01
Cc1noc(C)c1S(=O)(=O)N(C)C[C@@H]1Oc2c(NC(=O)c3cnccn3)cccc2C(=O)N([C@@H](C)CO)C[C@@H]1C	inactive: 0.999
COc1cccc(S(=O)(=O)N(C)C[C@H]2OCc3cn(nn3)CCCC(=O)N([C@H](C)CO)C[C@H]2C)c1	inactive: 0.991
Cc1noc(C)c1NC(=O)N(C)C[C@H]1Oc2c(NC(=O)c3cnccn3)cccc2C(=O)N([C@H](C)CO)C[C@@H]1C	inactive: 0.989
Cc1ccc(S(=O)(=O)Nc2ccc3c(c2)C(=O)N([C@@H](C)CO)C[C@H](C)[C@H](CN(C)S(=O)(=O)c2ccc(C)cc2)OCCCC[C@@H](C)O3)cc1	inactive: 1.01
NCCCN.O=C(O)C(O)C(O)C(=O)O (stereo unspecified)	inactive: 1.01
C[C@H](CO)N1C[C@H](C)[C@H](CN(C)S(C)(=O)=O)Oc2ccc(NS(=O)(=O)c3cn(C)cn3)cc2C1=O	inactive: 0.983
CN1CCN(C(=O)C[C@H]2C=C[C@H](NS(=O)(=O)c3cccc(F)c3)[C@@H](CO)O2)CC1	inactive: 0.988
Cc1noc(C)c1S(=O)(=O)Nc1ccc2c(c1)C(=O)N([C@@H](C)CO)C[C@@H](C)[C@@H](CN(C)C(=O)Nc1ccc(C(F)(F)F)cc1)OCCCC[C@@H](C)O2	inactive: 0.91
C[C@@H]1CCCCO[C@H](CN(C)S(=O)(=O)c2cn(C)cn2)[C@H](C)CN([C@H](C)CO)C(=O)c2cc(NC(=O)CCCN(C)C)ccc2O1	inactive: 0.959
COc1ccc(CN(C)C[C@H]2Oc3ccc(NC(=O)Cn4cnnn4)cc3CC(=O)N([C@@H](C)CO)C[C@H]2C)cc1	inactive: 1.01

SMILES	relative growth
C[C@@H]1CCCCO[C@@H](CN(C)Cc2ccc(Cl)c(Cl)c2)[C@H](C)CN([C@@H](C)CO)C(=O)c2cc(NC(=O)CCC(F)(F)F)ccc2O1	inactive: 1
C[C@H](CO)N1C[C@H](C)[C@@H](CN(C)S(=O)(=O)c2cccs2)Oc2ccc(NC(=O)C3CC3)cc2CC1=O	inactive: 1.01
C[C@H](CO)N1C[C@H](C)[C@@H](CN(C)Cc2ccc(C(=O)O)cc2)Oc2ccc(NC(=O)Cn3cnnn3)cc2CC1=O	inactive: 0.997
C[C@@H](O)c1ccc2ccccc2c1	inactive: 1.03
COCC#Cc1ccc2c(c1)O[C@@H](CN(C)C(=O)Nc1ccccc1F)[C@@H](C)CN([C@@H](C)CO)S2(=O)=O	inactive: 1.01
COc1ccc(NC(=O)N(C)C[C@H]2Oc3ncc(C#C[C@H](C)O)cc3C(=O)N([C@H](C)CO)C[C@@H]2C)cc1	inactive: 1.01
C[C@H](CO)N1C[C@H](C)[C@@H](CN(C)S(=O)(=O)c2cn(C)cn2)Oc2c(NC(=O)Cc3ccccc3)cccc2C1=O	inactive: 1.05
C[C@@H]1CCCCO[C@@H](CN(C)C(=O)C2CCCCC2)[C@@H](C)CN([C@H](C)CO)C(=O)c2cc(NC(=O)Nc3cccc4ccccc34)ccc2O1	inactive: 1.01
COc1cc(OC)c2c(c1)OC(c1ccccc1)CC2=O (stereo unspecified)	inactive: 0.812
C[C@@H]1CN([C@@H](C)CO)C(=O)c2cccc(NS(=O)(=O)c3ccc(F)cc3)c2O[C@@H]1CN(C)Cc1ccncc1	inactive: 0.995
C[C@@H]1CCCCO[C@@H](CN(C)S(=O)(=O)c2cccs2)[C@H](C)CN([C@H](C)CO)C(=O)c2cc(NC(=O)Nc3ccc(F)cc3)ccc2O1	inactive: 1.01
C[C@H](CO)N1C[C@H](C)[C@H](CN(C)C(=O)Nc2ccc(F)cc2)OCCCC[C@H](C)Oc2ccc(NC(=O)NC3CCCCC3)cc2C1=O	inactive: 0.996
CC(C)CC#Cc1ccc2c(c1)O[C@@H](CN(C)S(=O)(=O)c1cccc(F)c1)[C@H](C)CN([C@@H](C)CO)S2(=O)=O	inactive: 1.01
CS(=O)(=O)NCc1nnnn1-c1ccc(F)c(F)c1	inactive: 0.983
C[C@H](CO)N1C[C@H](C)[C@@H](CN(C)C(=O)CN2CCOCC2)Oc2cc(/C=C/c3ccccc3)ccc2S1(=O)=O	inactive: 1.02
O=C(C[C@H]1C=C[C@@H](NC(=O)c2cnccn2)[C@@H](CO)O1)NCc1ccccc1F	inactive: 0.988
C[C@H](O)C#Cc1ccc2c(c1)O[C@@H](CN(C)C(=O)CN(C)C)[C@@H](C)CN([C@@H](C)CO)S2(=O)=O	inactive: 1.03
C[C@@H]1CN([C@H](C)CO)C(=O)c2cc(NC(=O)Nc3ccc4c(c3)OCO4)ccc2O[C@@H](C)CCCCO[C@H]1CN(C)Cc1ccc(C(F)(F)F)cc1	inactive: 1.01
